These results are taken from PMC4242493.

The list shows a part of the results. The list includes weakly bound sequences.

The test has as its target MaxL homodimer (UniProt P61244). Kind of test: universal protein-binding microarray (PBM). Conditions: PBS-based mixture, 10 nM His-tagged protein dimer, 2% milk, 200 ng/uL BSA, 50 ng/uL salmon testes DNA, 0.02% TX-100; detection with Alexa 488 anti-His …; high values mean tight binding; most listed sequences are background and not binding sites; double strand, one strand shown.
Sequence of UniProt P61244 (P61244 whole entry): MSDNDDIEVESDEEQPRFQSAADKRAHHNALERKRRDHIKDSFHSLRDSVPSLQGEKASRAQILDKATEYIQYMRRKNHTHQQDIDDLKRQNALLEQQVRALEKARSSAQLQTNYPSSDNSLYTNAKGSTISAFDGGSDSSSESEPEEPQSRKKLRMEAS
On to GATCGAGA, for which the binding signal (normalized occupancy) came to 0.0708.
Then ACGCTAGT, with 0.074.
To ACACCGTA belongs 0.0798; to TAAGAAAA, 0.0724.
Consider CCCAAAGA, for which the binding signal (normalized occupancy) amounted to 0.073.
Then GAACCCGC, with 0.0714; and CAATTCCA, with 0.0713.
To CAGCCACC belongs 0.0779; to ATATGGGC, 0.0924; to ACGAAGAA, 0.0769.
To AGTAGCGG belongs 0.0668.
As to CGGACACA, the binding signal (normalized occupancy) turned out to be 0.0777.
Consider GAGATAGA, for which the binding signal (normalized occupancy) came out at 0.0718.
To ATTCGCCC belongs 0.0759; to CGGGGACG, 0.0709; to CCTAAGAC, 0.0761.
To AATTGGAC belongs 0.073.
Then GCGGTATA, with 0.0862.
For the sequence ACCGAGAC, the binding signal (normalized occupancy) amounted to 0.0804.
GTTCTGTA: the binding signal (normalized occupancy) worked out at 0.0739.
Take AAGGAGAG: the binding signal (normalized occupancy) came out at 0.0749.
Then CAGGGCAC, with 0.0729; and ATCATACC, with 0.0872; and AGGCCGTA, with 0.0865.
Turning to TAGCCTGA, the binding signal (normalized occupancy) worked out at 0.0762.
Then GAAAATTA, with 0.0753.
To ACATCGTA belongs 0.0832; to AAAACGAC, 0.0704; to GTGCGTTA, 0.0802.
Then AAAGTAAT, with 0.0755; and GAACAAAA, with 0.0774; and ATAATTAT, with 0.0751.
CGATAGCA: the binding signal (normalized occupancy) was determined as 0.0761.
To ATTGTACG belongs 0.0803.
To GGGAATAA belongs 0.0761; to AAACAGTG, 0.0728.
To AGACTCAG belongs 0.0677; to AACAGATG, 0.0811; to CGGGTGAA, 0.0737.
Turning to ATCAGTGA, the binding signal (normalized occupancy) turned out to be 0.074.
To CAGCCGCC belongs 0.0661.
To CACCTCCC belongs 0.0785; to AAAATCGA, 0.0701; to AGCTTGGC, 0.0728.
To CGACGATA belongs 0.0742; to AGCCCCTG, 0.0742; to TAGACGGA, 0.0767.
On to AGGAGAAT, for which the binding signal (normalized occupancy) is 0.0739.
To CTGGGCGC belongs 0.071.
Then AAAGCAGG, with 0.0748.
In the case of GATTCTCA, the binding signal (normalized occupancy) was 0.0699.
As for AGGCAGTC, the binding signal (normalized occupancy) worked out at 0.0707.
To GATATGAA belongs 0.0765; to TCTCGAAA, 0.0729.
To CCACCGAC belongs 0.0705; to TGAAAACA, 0.0774; to CAACCCGC, 0.0702.
Take AGGAGCTC: the binding signal (normalized occupancy) stood at 0.0691.
To CTGACCTA belongs 0.0721; to GGTCGACA, 0.073; to CCCAACAC, 0.0863.
Then GAAAAGTC, with 0.071.
Then CCACCTCC, with 0.0797; and CGATCACC, with 0.0764; and AGTATACT, with 0.0754.
For CCTTGGAA, the binding signal (normalized occupancy) came to 0.0704.
To CTATGGAG belongs 0.0785; to ATCGCAAC, 0.0716.
To GATCCGCA belongs 0.0769; to GATCAGGA, 0.0748; to AACAAACC, 0.074.
To ATGCTCGG belongs 0.0776.
On to CGGGCATC, for which the binding signal (normalized occupancy) turned out to be 0.0714.
To CGAGCTCC belongs 0.0701; to CTTAAAAA, 0.0679; to TGGCGACA, 0.075.
Then ACCAACCC, with 0.0787.
In the case of CAAGGCTG, the binding signal (normalized occupancy) is 0.0705.
Turning to CGGAACAA, the binding signal (normalized occupancy) came to 0.0732.
Then GCTGGGAC, with 0.0747.
For CTTTGGGA, the binding signal (normalized occupancy) came out at 0.0699.
To AAACGAAG belongs 0.0718.
Then CATGGTTC, with 0.0877; and GCCATCGA, with 0.0704.
Then TCCGTGCA, with 0.0771; and AGAATATA, with 0.0823.
As to GCCAGGAA, the binding signal (normalized occupancy) came to 0.0761.
To AACTTGCA belongs 0.0757; to AAAGACAT, 0.0759; to GCACTTAA, 0.0742.
Then ACCCCCGT, with 0.0814; and AACTCACC, with 0.0734.
To ATTGGTGA belongs 0.079; to ATAATCCA, 0.0803; to GGCGGAGA, 0.0677.
On to CGTTGCAG, for which the binding signal (normalized occupancy) was 0.0763.
Then ACGCCTAC, with 0.075.
To TCCACACA belongs 0.0814.
To AGGCCTGC belongs 0.0726; to ATACGCAG, 0.0734; to CGAATGGC, 0.0741.
Turning to ACTGGCGG, the binding signal (normalized occupancy) is 0.0693.
Then ACTCTATC, with 0.0791; and AGCCATCA, with 0.0792; and AGGTCTTC, with 0.0711.
To CGTTTGAG belongs 0.0708; to CATGTATC, 0.0975; to ACGAGTTG, 0.0803.
To CCCTAAGC belongs 0.0711.
With GCACATTA, the binding signal (normalized occupancy) turned out to be 0.0869.
Then CGCGTTAG, with 0.0774; and GTAGTCAA, with 0.0703.
Then AGAGTGTG, with 0.08; and AACCGTCC, with 0.0687.
AAGTGTTC: the binding signal (normalized occupancy) was determined as 0.0784.
On to ATATAGAT, for which the binding signal (normalized occupancy) was determined as 0.0911.
Regarding CATAGTGA, the binding signal (normalized occupancy) amounted to 0.0778.
Then ACTTACTG, with 0.0751.
To CCCCCCTA belongs 0.0821; to CAGCATGC, 0.126.
To GCGACATA belongs 0.0788; to GCAGAGCA, 0.0719; to GGAGCAAC, 0.0682.
Regarding CATTCAGC, the binding signal (normalized occupancy) was found to be 0.0725.
Turning to ATGCGGCA, the binding signal (normalized occupancy) came out at 0.0878.
Take AGAGCATA: the binding signal (normalized occupancy) is 0.0815.
To TACGGAGA belongs 0.0738; to CTGGGGAA, 0.0741.
Then CTTACAGA, with 0.0668; and ATTCCTCA, with 0.0739; and AATTAGGA, with 0.0789.
To CAGACACC belongs 0.0786; to ATGTCGGG, 0.0861; to AGACTGGA, 0.0692.
Regarding GCCAAAGC, the binding signal (normalized occupancy) was 0.0687.
Take GCTAATCC: the binding signal (normalized occupancy) turned out to be 0.0745.
For CAACTACA, the binding signal (normalized occupancy) worked out at 0.076.
Then ACAACTCC, with 0.0743; and CCGCACCA, with 0.0786.
To TGCACACA belongs 0.093.
On to CCGAGGCG, for which the binding signal (normalized occupancy) was found to be 0.0689.
In the case of AATCAGAA, the binding signal (normalized occupancy) was 0.0794.
Then AAACTGGG, with 0.0682; and CACTCGGG, with 0.0673.
To GCAGCCAC belongs 0.0737.
To CCATCGGG belongs 0.0711; to CTCGCGCC, 0.0694; to ACCATAAA, 0.0787.
Regarding GCCTTGCC, the binding signal (normalized occupancy) was 0.0714.
To GACCACCC belongs 0.0841; to CACTACTG, 0.0818.
Take ACGATGAG: the binding signal (normalized occupancy) stood at 0.0821.
As to CAGACGGC, the binding signal (normalized occupancy) is 0.0673.
To GAGAAAGC belongs 0.0684.
To ATTAAATG belongs 0.0815; to CTGCCAAG, 0.0757; to CTAAAATA, 0.0829.
GGACGAAC: the binding signal (normalized occupancy) was found to be 0.07.
Then ATACGGAG, with 0.073.
Consider ATCTATAC, for which the binding signal (normalized occupancy) stood at 0.0819.
Then ACTGGGGG, with 0.073; and ACCAAACG, with 0.0712.
For CTGACATC, the binding signal (normalized occupancy) was found to be 0.0791.
To AGTGCATG belongs 0.0988.
Then AGCTTCTA, with 0.0709; and TGCCAGAA, with 0.0775.
Take CGAAAACC: the binding signal (normalized occupancy) is 0.0763.
Consider GTCCTTAA, for which the binding signal (normalized occupancy) came out at 0.0744.
Then CCATCGCG, with 0.0734.
Turning to ACAACAGC, the binding signal (normalized occupancy) worked out at 0.0725.
Then GATTAAAA, with 0.0743.
To AAATTGAG belongs 0.0717.
